The campaign covered roughly 390,000 compounds. About 150 (0.038%) were called active. Inconclusive results (about 3%) are left out. Calls come from the whole dose curve; as a rule, active = well fitted inhibition curve with a large enough effect; inconclusive = small, poorly fitted or top-dose-only effect; inactive = no such curve, though single readings can be large or run the other way. The entries are a selection whose mix differs from that of the whole data set. A structure can be active in one record and inactive in another.
% is set by controls: 0 for no effect and ±100 for the full control effect; potency is the fitted concentration of half-maximal effect.

This test deals with Regulator of G-protein signaling 4 (Homo sapiens) (UniProt P49798). The test is described as follows: Inhibitors of Regulator of G Protein Signaling (RGS) 4: qHTS. Note: nearly all actives have a fitted effect of over 75% in size. Conditions: Transcreener GDP fluorescence polarization, RGS4-accelerated GTP hydrolysis; series mostly up to 114 µM; activity change, negative = inhibition: at the top concentration. The source says: G-protein-coupled receptors (GPCRs) are well-established targets for drug discovery and development. Members of the "regulator of G-protein signaling" (RGS)-protein superfamily have recently emerged as critical modulators of specific GPCR signaling pathways. […] Combining specific RGS domain inhibitors with existing GPCR agonists should potentiate cellular responses and could also increase the specificity of action of existing therapeutics. Small molecule modulators of RGS domain activity should also have clinical utility in inhibiting or potentiating the actions of endogenous GPCR agonists. In particular, the diversity of RGS proteins with highly localized and dynamically regulated distributions in the human brain makes this family of proteins attractive targets for pharmacotherapy of central nervous system (CNS) disorders such as Parkinson's disease, schizophrenia, and anxiety.
UniProt P49798, sequence (P49798 whole entry, looked up, the tested form may be a part): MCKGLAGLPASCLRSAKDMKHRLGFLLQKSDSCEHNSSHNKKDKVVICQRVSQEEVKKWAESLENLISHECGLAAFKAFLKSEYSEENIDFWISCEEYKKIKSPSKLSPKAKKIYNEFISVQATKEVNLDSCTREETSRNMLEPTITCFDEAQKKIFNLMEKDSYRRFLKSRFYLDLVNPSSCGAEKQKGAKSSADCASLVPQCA
This assay was used to screen the NIH Molecular Libraries Small Molecule Repository (MLSMR) in order to identify a small molecule that inhibits RGS4.
NIH Chemical Genomics Center [NCGC]
NIH Molecular Libraries Probe Centers Network [MLPCN]
Assay Submitter (PI): David Siderovski, University of North Carolina Chapel Hill (School of Medicine)
Two microliters of 500nM (2x working concentration) is dispensed into black medium-binding solid-bottom Kalypsys plates. Then with the Kalypsys pintool 23nl of control and compounds are transferred; the control compound is […] CCG-4986 (working concentration). After a 10 minute incubation at room temperature 2ul of antibody is added with the Kalypsys dispenser; (-)RGS4/Transcreener GDP solution in columns 3 and 4 which consisted of 10nM (2x working concentration) Alexa633, 20uM GTP, and 20 ug/ml GDP antibody and (+)RGS4/Transcreener GDP solution in columns 1,2, and 5 to 48 which consists of 900nM RGS4 (2x working concentration), 10nM Alexa633, 20 ug/ml GDP antibody. The plate is centrifuged at 1000 RPM for 15 seconds to remove any possible bubbles and then incubated for 5 minutes at ambient room temperature. An initial fluorescent polarization read (620 nm/688 nm) is performed on the Envision before the plate is incubated for 90 minutes at 30 deg C at a relative humidity of 80%. The plate is once more centrifuged at 1000 RPM for 15 seconds and another Envision fluorescent polarization (620 nm/688 nm) read is carried out.
In general terms: Quantitative high-throughput screening tests each substance at several concentrations.
Consider `Nc1ccc(CCN2CCN(c3cccc(C(F)(F)F)c3)CC2)cc1`, for which the “activity change, negative = inhibition” value was inactive: -2.53%. Still for that read-out and setting: the result for `C=C1C(O)[C@@H]2O[C@]3(CC[C@H](/C=C/C(C)[C@@H]4CC(C)=CC5(O[C@H](C[C@@](C)(O)C(=O)O)CCC5O)O4)O3)CC[C@H]2O[C@@H]1C(O)CC(C)[C@H]1OC2(CCCCO2)CCC1C` (stereo partly drawn) reads inactive: 5.42%. As to `N.N.N.N.N.N.N.N.N.N.N.N.N.N.O.O.[Ru+4].[Ru+5].[Ru+5]`, the Potency is active: 18.9 µM. With `CC(C)C[C@H]1C(=O)N2CCC[C@H]2[C@]2(O)O[C@](NC(=O)[C@@H]3C=C4c5cccc6[nH]c(Br)c(c56)CC4N(C)C3)(C(C)C)C(=O)N12` (stereo partly drawn), the “activity change, negative = inhibition” value is inactive: -2.26%. On the same count and under the same terms, in the case of `CC12C=CC(=O)C=C1CCC1C2=CCC2(C)C1CC[C@@H]2C(=O)CN1CCN(c2cc(N3CCCC3)nc(N3CCCC3)n2)CC1` (stereo partly drawn) it was inactive: -10% [at 56.9 µM]. On to `C#CCN(C)[C@H](C)Cc1ccccc1`, for which the Potency entry was “inactive”. For the molecule `C[N+]1(C)C2CC[C@H]1CC(OC(=O)C(CO)c1ccccc1)C2` (stereo partly drawn), the “activity change, negative = inhibition” value is inactive: -3.22%. On the same count and under the same terms, the result for `C[C@]12CCC(=O)C=C1CC[C@@H]1C2CC[C@]2(C)C(=O)CCC12` (stereo partly drawn) reads inactive: -20.5%. Same read-out and setting: the result for `O=S1(=O)N(CCN2CC=C(c3c[nH]c4cc(F)ccc34)CC2)c2cccc3c2N1CCC3` reads inactive: -15.3%; that for `NCCCNCCSP(=O)(O)O`, inactive: -12.1% [at 56.9 µM]; that for `NC1C=CC=C(C(=O)O)C1` (stereo not drawn), inactive: 15.8%.

`C[Se]C[C@@H](N)C(=O)O`: the “activity change, negative = inhibition” value is inactive: -48.8%.

On to `CC(C)NC[C@H](O)COc1cccc2[nH]ccc12`, for which the Potency entry was “inactive”.

`C#CCOC(=O)C1=CCCN(C)C1`: the Potency result was “inactive”. For the molecule `c1ccc(C2CC2)c(OCC2=NCCN2)c1`, the Potency entry is “inactive”. Same read-out and setting: in the case of `CCCC(=O)OCC[N+](C)(C)C` it was “inactive”. With `CC[N+](CC)(CC)CCOc1cccc(OCC[N+](CC)(CC)CC)c1OCC[N+](CC)(CC)CC`, the “activity change, negative = inhibition” value is inactive: -34.7%. Same read-out and setting: in the case of `O=c1c(O)c(-c2ccc(O)c(O)c2)oc2cc(O)cc(O)c12` it was inactive: -11.4%. Take `CCOC(=O)Nc1ccc(NCc2ccc(F)cc2)nc1N`: the Potency is active: 8.43 µM.

Consider `CNC(=O)Oc1ccc2c(c1)[C@]1(C)CCN(C)[C@@H]1N2C`, for which the Potency result was “inactive”. For the molecule `Cc1cc(O)c2c(c1)C(=O)c1cc(O)cc(O)c1C2=O`, the “activity change, negative = inhibition” value is inactive: 21.1%.

Regarding `CN(C)C(=O)Oc1cccc([N+](C)(C)C)c1`, the Potency entry was “inactive”. With `COc1ccc2[nH]cc(C3=CCNCC3)c2c1`, the “activity change, negative = inhibition” value is inactive: 440% [at 56.9 µM]. The same measure, in the same setting: the result for `CC(C)c1ccc(N2C(=O)NC(=O)/C(=C\c3cnc(-c4ccccc4)nc3)C2=O)cc1` reads inactive: 4.13% [at 11.4 µM]; that for `C=CC[N+]1(C)CC[C@]23c4c5ccc(O)c4O[C@H]2C(=O)CC[C@@]3(O)[C@H]1C5` (stereo partly drawn), inactive: -12.7%.

Take `O=C(O)c1cc[c]([Hg][Cl])cc1`: the “activity change, negative = inhibition” value was inactive: -143%.

On to `CNCCC(Oc1ccc(C(F)(F)F)cc1)c1ccccc1` (stereo not drawn), for which the Potency entry is “inactive”. For the molecule `Clc1ccc(C(c2ccc(Cl)cc2)n2cc[n+](CC(OCc3ccc(Cl)cc3Cl)c3ccc(Cl)cc3Cl)c2)cc1` (stereo not drawn), the “activity change, negative = inhibition” value was inactive: -32.3%.

Source of the values: PubChem BioAssay AID504845 (National Center for Advancing Translational Sciences (NCATS), 2011).
